The source of these data is PubChem BioAssay AID485344 (National Center for Advancing Translational Sciences (NCATS), 2010).

Screen size: about 340,000 compounds; about 6,900 (2%) were called active. Rule as the data show it: active = inhibition above about 30%; inactive = below that, where a call was filed. Only a part is listed here, and it is no random draw. Entries without a call were filed so in the source.

For orientation: inhibition means the relative decrease from the control value, in per cent.

Chain of UniProt P14416 (P14416 whole entry, looked up): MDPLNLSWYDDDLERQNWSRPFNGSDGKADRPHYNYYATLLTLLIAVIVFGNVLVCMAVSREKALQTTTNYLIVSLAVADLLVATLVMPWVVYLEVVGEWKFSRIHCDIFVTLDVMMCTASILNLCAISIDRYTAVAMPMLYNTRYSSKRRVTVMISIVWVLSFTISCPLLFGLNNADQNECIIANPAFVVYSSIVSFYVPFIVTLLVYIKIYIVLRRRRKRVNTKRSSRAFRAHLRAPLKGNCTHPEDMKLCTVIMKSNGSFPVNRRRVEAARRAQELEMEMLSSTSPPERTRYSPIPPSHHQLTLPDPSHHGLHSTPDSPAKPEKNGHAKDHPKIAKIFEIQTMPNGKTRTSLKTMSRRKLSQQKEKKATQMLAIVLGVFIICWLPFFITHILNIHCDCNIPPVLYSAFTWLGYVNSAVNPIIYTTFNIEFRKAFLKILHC

This assay concerns the target D(2) dopamine receptor (Homo sapiens) (UniProt P14416). Kind of assay: HTS Assay for Allosteric Antagonists of the Human D2 Dopamine Receptor: Primary Screen for Antagonists. Also: 0% is about no effect. Conditions: HEK293 TREx D2 cells, calcium flux, dopamine EC80; at 10 µM; stronger effect = higher value. Summed up:
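Inhibition of EC80 dopamine-driven calcium flux, recorded kinetically, defines activity here; cells are a tetracycline-induced HEK293 T-REx line expressing force-coupled D2.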
(A change in cytosolic calcium serves as a functional read-out for many receptors and channels.)
For `CCOC(=O)c1cc(C)nc(SC)c1C#N`, the inhibition is active: 30.7%.
The value for `CC(C)N(C(=O)Cn1cc(S(=O)(=O)Cc2ccc(Br)cc2)c2ccccc21)C(C)C` was -8.04%; that for `O=C(c1ccc(F)cc1)N1CCC(c2nc3ccccc3s2)CC1` was 8.46%; that for `Cc1ccc(CNC(=O)c2cc(-c3ccc(C)cc3)nc3n[nH]c(-c4cccc([N+](=O)[O-])c4)c23)cc1` was -9.56%.
`COc1ccc(NC2=C(c3ccccc3)C(=O)c3ccccc32)cc1Cl`: the inhibition was -11.8%.
To `CC1CCN(S(=O)(=O)c2ccc3c(c2)N(CC(=O)NCCCN2CCCCC2)C(=O)CS3)CC1` belongs 8.28%; to `Cc1cc(C)c(NC(=O)Cn2c(=O)n(CCC(=O)NCc3ccccc3Cl)c(=O)c3sccc32)c(C)c1`, 4.55%.
Turning to `O=C(Nc1nc2ccc(F)cc2s1)c1nc(S(=O)(=O)Cc2ccccc2F)ncc1Cl`, the inhibition was -27.7%.
With `COc1ccc(C(=O)Nc2ccc3nc(SCC(=O)N(C)c4ccccc4)sc3c2)cc1`, the inhibition turned out to be 4.6%.
The value for `CSc1ncc(C(=O)NCc2ccc(C)cc2)c(C)n1` was -18.8%; that for `O=C(CSc1cn(CCNC(=O)c2cccc(C(F)(F)F)c2)c2ccccc12)Nc1ccc2c(c1)OCCO2` was -11.3%.
The value for `O=C(Nc1ccc2c(c1)C(=O)NC2=O)c1ccc(S(=O)(=O)N2CCCC2)cc1` was active: 30.8%; that for `Cc1ccc(Cl)cc1N1CCN(C(=O)CSc2cc(=O)n(C)c3ccccc23)CC1` was 2.21%.
To `Cc1cccc(CC(=O)Nc2ccc3nc(N4CCC(C)CC4)cc(C)c3c2)c1` belongs -11.6%; to `CC1=C(C(=O)Nc2cc(Cl)ccc2C)C(c2sccc2C)n2ncnc2N1` (stereo unspecified), 11.4%.
With `CCc1cccc(-n2c(=O)c3cccnc3n2CC(=O)NCc2ccc(C)cc2)c1`, the inhibition was -5%.
For `O=C(CCCCCn1c(=O)c2sccc2n(CC(=O)Nc2cc(C(F)(F)F)ccc2Cl)c1=O)NCc1ccccc1Cl`, the inhibition is -1.69%.
`Cc1ccc(NC(=O)c2cc3ccccn3n2)cc1F`: the inhibition was -7.2%.
To `Cc1ccc(NC(=O)Cn2cnc3onc(-c4ccc(F)cc4)c3c2=O)c(Cl)c1` belongs 3.91%.
To `O=C(CN1C(=O)C2(SCC(=O)N2c2cccc(Cl)c2)c2ccccc21)NCc1ccccc1` (stereo unspecified) belongs -4.93%; to `O=C(CCN1C(=O)c2ccccc2S1(=O)=O)N1CCN(c2ccc(F)cc2)CC1`, active: 32.8%; to `CC(C)(C)c1ccc(OCC(=O)NCC2(N3CCOCC3)CCCCC2)cc1`, -19.7%.
For the molecule `Cc1nc(N)sc1C(=O)N/N=C/c1ccccc1[N+](=O)[O-]`, the inhibition was active: 33%.
The value for `COc1ccc(NC(=O)CCCn2c(=O)c3cccn3c3cccnc32)cc1Cl` was -0.786%.
Consider `CCOc1ccccc1CNC(=O)c1oc2c(c1C)-c1[nH]ncc1CC2`, for which the inhibition was 17.3%.
The value for `CCCN(CCC)C(=O)Cn1c(=O)n(CCCCCC(=O)NCc2ccc3c(c2)OCO3)c(=O)c2sccc21` was -6.48%; that for `CCOC(=O)c1c(NC(=O)c2cc(OC)c(OC)c(OC)c2)sc2c1CCCC2` was 4.38%; that for `Cc1ccc(C)n1-c1nnc(N2CCCC(C(=O)Nc3ccccc3Br)C2)s1` (stereo unspecified) was 4.72%.
The value for `COc1ccccc1-c1noc(CCCC(=O)Nc2cccc(C(F)(F)F)c2)n1` was 3.8%.
As to `O=[N+]([O-])c1ccccc1/C=C/CN1CCN(Cc2ccc3c(c2)OCO3)CC1`, the inhibition is active: 31.5%.
To `O=C(NNc1nc2ccc(F)cc2s1)c1cccc(F)c1` belongs active: 40.7%.
To `COC(=O)C(C)n1cnc2c(nnn2-c2ccccc2)c1=O` (stereo unspecified) belongs active: 30.5%; to `CC(=O)Nc1ccc(Nc2ncnc3c2cnn3C)cc1`, 10.5%; to `Cc1ccccc1CSc1nc(-c2cccc(F)c2)nc2c1Cc1c(CO)cnc(C)c1O2`, 14.2%.
To `COc1ccc(OC)c(CNC(=O)c2nn(C)c3c2CS(=O)(=O)c2ccccc2-3)c1` belongs -8.51%; to `CN(C)C(=O)c1ccc2c(c1)N(CC(=O)NCc1ccccc1Cl)C(=O)C1CCCCN21` (stereo unspecified), 18%.
On to `CCN(C(=O)CSc1nc(-c2ccccc2)no1)c1ccccc1`, for which the inhibition was -2.6%.
To `CCOc1cc(CNC(=O)c2ccc3nc(C(C)C)oc3c2)cc(OCC)c1OCC` belongs 1.7%.
To `O=C(Cn1c(=O)n(-c2ccccc2)c(=O)c2ccc(C(=O)NCc3ccc4c(c3)OCO4)cc21)Nc1ccc(Br)cc1` belongs -16.6%.
To `Cc1ccc(C)c(N2CCN(C(=O)c3cc4c(=O)oc5ccccc5c4s3)CC2)c1` belongs 6.91%; to `CCCCN(CC)C(=O)c1nn(-c2ccc(OC)cc2)c(=O)c2c1c1ccccc1n2C`, -14.7%.
As for `COc1ccc(OC)c(CNC(=O)c2ccc3c(c2)c(C)c(C)n3C)c1`, the inhibition is 6.9%.
Regarding `O=C(CSc1nc2ncccc2o1)Nc1cccc(C(F)(F)F)c1`, the inhibition was 0.0872%.
The value for `CCS(=O)(=O)c1oc(-c2ccc(F)cc2)nc1S(=O)(=O)c1ccccc1` was -7.09%; that for `Cc1nc(SCC(=O)Nc2nsc(-c3ccc(C(C)(C)C)cc3)n2)c2c3c(sc2n1)CCCC3` was -11.9%.
To `Cc1ccc(OCCCCN2CCC(C)CC2)c(Br)c1` belongs active: 107%; to `COc1ccc(N2CCN(S(=O)(=O)CCNC(=O)Cc3ccc(OC)c(OC)c3)CC2)cc1`, -6.02%; to `COc1ccc(N2CCN(C(=O)CN3C(=O)COc4ccc(S(=O)(=O)N5CCC(C)CC5)cc43)CC2)cc1`, -11.1%.
The value for `O=C(c1cnc2c(c1)COc1ccc(Cl)cc1-2)c1ccccc1O` was 3.48%.
In the case of `COc1ccc(N2CC(NC(=O)C3CCCCC3)CC2=O)cc1OC` (stereo unspecified), the inhibition was -20.6%.
The value for `Clc1ccccc1CSc1nnc(C2CCNCC2)o1` was -2.17%; that for `CCOc1ccc(NC(=O)CCCOc2cc(=O)n(C)c3ccccc23)cc1` was -12.4%.
To `Cc1ccc2nc(-c3ccc(C)o3)c(Nc3ccc4c(c3)OCCO4)n2c1` belongs -4.2%; to `COc1ccc(NC(=O)c2oc3ccccc3c2NC(=O)Cc2coc3ccc(C)cc23)cc1`, -0.0141%; to `O=C(NCCc1ccccc1)c1ccc(Cn2c(SCc3ccccc3F)nc3cccnc32)cc1`, 6.24%.
To `CCCN1CN=C(NS(=O)(=O)c2ccc(NC(C)=O)cc2)NC1` belongs 12.5%; to `CCc1ccc(NC(=O)CSc2nc(-c3cccc(OC)c3)nc3c2Cc2c(CO)cnc(C)c2O3)cc1`, 14.4%.
As to `CC(Oc1ccccc1)C(=O)Nc1ccccc1C(=O)OCc1cc(=O)n2nc(C(C)C)sc2n1` (stereo unspecified), the inhibition stood at 5.84%.
Turning to `CCCc1cc(=O)[nH]c(Nc2cc(C)cc(C)c2)n1`, the inhibition is -11.9%.
To `Cc1c(C(=O)N(C)C)sc2c1c(=O)n(-c1ccc(Cl)c(Cl)c1)c(=O)n2CC(=O)N1CCCCC1C` (stereo unspecified) belongs 15.7%; to `COc1cc(C(=O)N(Cc2ccc(N(C)C)cc2)CC2CCCO2)cc(OC)c1OC` (stereo unspecified), -0.354%.
